Experimental data published in PubChem BioAssay AID624296 (National Center for Advancing Translational Sciences (NCATS), 2012).
The whole screen tested about 350,000 compounds, of which about 9,900 (2.8%) were called active. This list was built around the results that the source calls inconclusive (neither active nor inactive); the mix of calls is not that of the screen. The call rests on the fitted dose curve; in most records, active means well fitted activation curve with a large enough effect; inconclusive means small, poorly fitted or top-dose-only effect; inactive means no such curve, though single readings can be large or run the other way. No potency is given beside an inconclusive call; the fits are too rough.

Assay: A quantitative high throughput screen for small molecules that induce DNA re-replication in MCF 10a normal breast cells. Further: nearly all actives have a fitted effect of over 50% in size. On activity, positive = re-replication: % of control where 0% means no effect.
Conditions: MCF 10A DNA re-replication, Hoechst nuclear intensity, 48 h; activity, positive = re-replication: at 46.1 µM (top of the series)
Potency means the concentration at half of the fitted maximal effect; tags describe the fitted curve by direction and shape.

Compound	activity, positive = re-replication	Potency
OCCc1c[nH]c2ccccc12	inactive: 3.88%	–
COc1ccc(NC(=S)NCCc2c(C)[nH]c3ccc(OC)cc23)cc1	inactive: -10.4%	–
COc1ccc(CCNC(=O)c2cc3c(F)cccc3s2)cc1OC	inactive: 9.6%	–
CSCC[C@H](NS(=O)(=O)c1ccc(C)cc1)C(=O)N1CCC(C(=O)N[C@H](C(=O)O)c2ccccc2)CC1	–	inconclusive [activator, single point]
O=C(CNC(=O)c1cccs1)N=Nc1c(O)[nH]c2ccc(Br)cc12	inactive: 1.45%	–
COCCNC(=O)CN1CCC(NC(=O)C(C)(C)C)CC1	–	inconclusive [activator, partial curve, poor fit]
COc1ccc(S(=O)(=O)N2CCCCC2)cc1NC(=O)c1cc(C)on1	–	inconclusive [activator, partial curve, poor fit]
O=C(Nc1ccc2c(c1)oc1ccccc12)c1ccc(Br)o1	–	inconclusive [activator, single point]
Cc1cccc2cc(C#N)c(NCCNC(=S)NCCCN3CCOCC3)nc12	–	inconclusive [activator, single point]
N#CC1(NC(=O)COC(=O)c2cc([N+](=O)[O-])ccc2N2CCCC2)CCCCC1	–	inconclusive [activator, single point]
COc1ccc(CNC(=O)C(c2ccc(O)cc2)N(Cc2ccco2)C(=O)c2snc(C(N)=O)c2N)cc1 (configuration not stated)	–	inconclusive [activator, single point]
NS(=O)(=O)c1ccc(NC(=S)Nc2ccc(F)c(F)c2)cc1	inactive: 1.54%	–
Cn1c(=O)cc(OCCCC(=O)NC2CCCC2)c2ccccc21	–	inconclusive [activator, partial curve, poor fit]
CCc1ccccc1NC(=S)NCC1CCN(c2ccc(OC)cc2)C1 (configuration not stated)	–	inconclusive [activator, partial curve, poor fit]
COc1cc(OC)c2ccc(=O)oc2c1C(CC(=O)N1CCOCC1)c1ccc(N(C)C)cc1 (configuration not stated)	inactive: -7.48%	–
O=C(c1ccc(CN2CCOCC2)cc1)N1CCC(Cc2ccccc2)CC1	–	inconclusive [activator, partial curve, poor fit]
O=C1CC(c2cccc([N+](=O)[O-])c2)c2cc3c(cc2N1)CCC3 (configuration not stated)	–	inconclusive [activator, single point]
O=c1[nH]c2cc3c(cc2cc1CN(Cc1ccco1)C(=S)NCCCN1CCOCC1)OCCO3	–	inconclusive [activator, single point]
O=C(CCN1C(=O)/C(=C/c2ccc(F)cc2)SC1=S)Nc1cc([N+](=O)[O-])ccc1O	–	inconclusive [activator, full curve, poor fit]
Cc1ccc(NC(=O)C2CCCN(S(=O)(=O)c3c(C)noc3C)C2)nc1 (configuration not stated)	–	inconclusive [activator, single point]
CCN(CC(=O)Nc1cccc(S(N)(=O)=O)c1)Cc1nc2ccccc2c(=O)[nH]1	–	inconclusive [activator, single point]
O=C(CNC(=S)N(Cc1ccccc1)Cc1ccccc1F)NCc1ccc(Cl)cc1	–	active: 23.1 µM
CN(C)CCN(C(=O)c1ccc2c(c1)CCCC2)c1nc2cc3c(cc2s1)OCCO3	–	inconclusive [activator, partial curve, poor fit]

Compound	activity, positive = re-replication	Potency
CC1(C)CC(NS(=O)(=O)c2ccc(F)cc2)CC(C)(C)N1	inactive: -20.8%	–
CC(C)N1C(=O)C2ON(c3ccccc3)C(c3cccs3)C2C1=O (configuration not stated)	–	inconclusive [activator, partial curve, poor fit]
Cc1ccc(C2Nc3ccccc3-c3nc4ccccc4n32)o1 (configuration not stated)	–	inconclusive [activator, single point]
O=C(c1ccccc1OCc1ccccc1Br)N1CCN(c2ncccn2)CC1	–	inconclusive [activator, partial curve, poor fit]
CN(CC(=O)Nc1cccc(F)c1)C(=O)CCCN1C(=O)c2cccc3cccc(c23)C1=O	inactive: 3.57%	–
CCOC(=O)C1CCN(C(=O)C(C)Oc2ccc(C(=O)c3ccccc3)cc2)CC1 (configuration not stated)	–	inconclusive [activator, single point]
O=C(/C=C/c1ccc(Cl)cc1Cl)c1ccc[nH]1	inactive: 117%	–
Cc1ccc(-c2cnc3cc(C)nn3c2)cc1	inactive: 2.41%	–
CC(C)(C)n1ncc2c(=O)n(CC(=O)c3ccc(Cl)cc3)cnc21	–	inconclusive [activator, partial curve, poor fit]
CC(C)(C)c1ccc(OCCOCCn2cnc3ccccc3c2=O)cc1	–	inconclusive [activator, single point]
CCc1ccccc1NC(=O)CN1CCN(C(=O)CNC(=O)c2ccc(-c3ccccc3)cc2)CC1	–	active: 5.8 µM
Cc1ccc(S(=O)(=O)N(C)C)cc1NC(=O)C1CCCN(C(=O)c2ccc(Cl)cc2)C1 (configuration not stated)	–	inconclusive [activator, full curve, poor fit]
Cc1cc(C(=O)CN2C(=O)C(=O)N(Cc3ccccc3)C2=O)c(C)n1-c1ccccc1F	–	inconclusive [activator, partial curve, poor fit]
CCc1cccc(NC(=O)CCS(=O)(=O)c2ccc(Br)cc2)c1	–	inconclusive [activator, single point]
C/C(CC(=O)Nc1cccc(Cl)c1Cl)=N\NC(=O)c1ccccc1C	–	inconclusive [activator, single point]
Cc1cccc(N2CCN(C(=O)c3ccc4nc(N5CCCCC5)sc4c3)CC2)c1C	inactive: 5.19%	–
Cc1ccc(-n2nc3c(c2NC(=O)C(C)(C)C)CS(=O)(=O)C3)cc1	inactive: -2.55%	–
COc1ccccc1CNC(=O)c1cccnc1	inactive: -3.04%	–
CCOc1ccc(NC(=O)c2ccccc2NC(=O)CNC2CCCC(C)C2C)cc1 (configuration not stated)	–	inconclusive [activator, partial curve, poor fit]
CC(NC(=S)NC(=O)c1ccccc1)c1ccccc1 (configuration not stated)	inactive: -1.87%	–
Cc1ccc2c3c([nH]c2c1)C(=O)CC(C)(C)S3	–	inconclusive [activator, partial curve]
O=C(/C=C/c1ccccc1Cl)NCCCn1ccnc1	–	inconclusive [activator, partial curve, poor fit]
CCc1ccc(C(CNc2nc(C(F)(F)F)nc3ccccc23)N(C)C)cc1 (configuration not stated)	–	inconclusive [activator, single point]

Compound	activity, positive = re-replication	Potency
CCCSc1nnc(NC(=O)c2sc3nc(-c4cccs4)ccc3c2N)s1	–	inconclusive [activator, single point]
COc1ccc(CCNC(=O)CCc2ccccc2)cc1OC	–	inconclusive [activator, single point]
O=[N+]([O-])c1c(C(Cl)Cl)nn(-c2ccc(Cl)cc2)c1N1CCCCC1	–	inconclusive [activator, single point]
Cc1ccc(NC(=S)c2ccncc2)c(C)c1	–	inconclusive [activator, partial curve, poor fit]
CC1(CCC(=O)N2CCCC(N3CCN(c4ccc(F)cc4)CC3)C2)CC1 (configuration not stated)	–	inconclusive [activator, single point]
O=C1Oc2ccccc2C(=O)/C1=C/c1ccccc1O	–	inconclusive [activator, single point]
COc1ccc(C(=O)NCc2nnc(SCC(=O)Nc3cc(OC)ccc3OC)o2)cc1	inactive: 1.2%	–
Cc1nc2c(C)cccc2c2c1CCN2c1ccccc1F	–	inconclusive [activator, partial curve, poor fit]
N=C(N)SCP(=O)(c1ccccc1)c1ccccc1	–	inconclusive [activator, single point]
CCn1c(SCC(=O)N2CCCCC2C)nc2ccsc2c1=O (configuration not stated)	inactive: -6.56%	–
C(=C\c1nc(-c2ccncc2)no1)/c1ccccc1	–	inconclusive [activator, single point]
CCOC(=O)[C@H]1[C@H]2COc3ccccc3[C@@H]2N2C(=O)c3cc(Cl)ccc3NC(=O)[C@@]12C	–	inconclusive [activator, full curve, poor fit]
CC(=O)Nc1c(C(N)=O)oc2ccc(Cl)cc12	inactive: -1.7%	–
Cc1ccc(NC2Sc3ccccc3NC2=O)cc1Cl (configuration not stated)	–	inconclusive [activator, single point]
O=C(NC(=S)N1CCCC1)c1ccccc1	–	inconclusive [activator, partial curve, poor fit]
C=CCC1c2cccc(C(=O)O)c2C(=O)N1c1ccc(Cl)cc1 (configuration not stated)	–	inconclusive [activator, partial curve, poor fit]
CCCNC(=O)C(Cc1ccc(I)cc1)NC(=O)c1ccc(C#N)cc1 (configuration not stated)	inactive: -0.742%	–
O=C1CCCC2=C1C(c1ccccc1)n1c(s/c(=C/c3cccc(F)c3)c1=O)=N2 (configuration not stated)	–	inconclusive [activator, full curve, poor fit]
COc1ccc(NC(=O)CCCC2CCCCC2)cc1S(=O)(=O)N1CCCCC1	–	inconclusive [activator, full curve, poor fit]
COc1ccccc1NC(=S)NC(=O)c1ccc(-c2ccc(Cl)cc2)o1	–	inconclusive [activator, partial curve, poor fit]
N#C/C(=C/c1ccc(O)c(O)c1)c1nc2ccccc2[nH]1	inactive: -10.1%	–
